Experimental data published in the supplement of paper PMC3334620.
The full ranking holds about 33,000 sequences; the median of “E-score (-0.5 to 0.5)” is about -0.035, and the highest 2% start at about 0.35. Some of the results follow.

Molecular target: T1, Pdr3 (UniProt P33200)
T1 sequence: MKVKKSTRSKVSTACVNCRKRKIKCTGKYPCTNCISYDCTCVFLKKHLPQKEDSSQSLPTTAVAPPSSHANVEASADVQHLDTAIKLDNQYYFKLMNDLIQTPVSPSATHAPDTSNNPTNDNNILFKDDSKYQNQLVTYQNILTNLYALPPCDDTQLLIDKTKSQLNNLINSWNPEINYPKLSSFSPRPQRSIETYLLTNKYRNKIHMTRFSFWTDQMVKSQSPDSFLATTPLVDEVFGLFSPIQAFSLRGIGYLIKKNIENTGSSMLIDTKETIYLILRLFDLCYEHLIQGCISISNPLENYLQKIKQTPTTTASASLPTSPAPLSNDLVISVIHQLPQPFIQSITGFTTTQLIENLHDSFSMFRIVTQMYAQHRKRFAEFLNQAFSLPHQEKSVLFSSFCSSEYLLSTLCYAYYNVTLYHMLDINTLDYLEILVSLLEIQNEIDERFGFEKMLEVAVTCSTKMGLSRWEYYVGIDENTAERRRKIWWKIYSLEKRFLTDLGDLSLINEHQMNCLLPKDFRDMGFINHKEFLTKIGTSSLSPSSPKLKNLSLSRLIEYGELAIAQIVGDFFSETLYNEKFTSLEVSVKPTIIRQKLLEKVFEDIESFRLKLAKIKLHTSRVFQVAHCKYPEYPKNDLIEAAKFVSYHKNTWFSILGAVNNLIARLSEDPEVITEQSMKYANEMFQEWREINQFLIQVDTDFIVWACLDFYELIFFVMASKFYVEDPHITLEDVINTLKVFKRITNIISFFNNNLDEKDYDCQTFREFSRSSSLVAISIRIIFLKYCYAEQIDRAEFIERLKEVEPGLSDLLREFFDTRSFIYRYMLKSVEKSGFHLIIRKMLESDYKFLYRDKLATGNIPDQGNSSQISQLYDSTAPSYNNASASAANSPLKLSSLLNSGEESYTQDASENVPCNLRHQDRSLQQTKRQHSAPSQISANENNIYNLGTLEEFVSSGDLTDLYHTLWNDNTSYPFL
Assay: PBM E-score (8-mer binding enrichment) (E-score (-0.5 to 0.5)); higher = stronger / more preferred TF binding; most listed sequences are background and not binding sites
Conditions: protein concentration: 200 nM; construct: GST-full length
Outline: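 Detection of bound protein used fluorescent anti-GST, with scans normalised by masliner. The proteins were GST-tagged yeast transcription factors applied at about 100-200 nM to universal all-10-mer Agilent arrays made double-stranded by primer extension. Each ungapped eight-base word, pooled with its reverse complement, was scored with an E-score from the Universal PBM Analysis Suite.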

Sequence | PBM E-score
CTTTGCAA | -0.014
ACCGGAAC | 0.474
ACCCGTTG | 0.0389
AGACGTTG | -0.0555
AGTAGTTC | 0.204
CAAGCGCC | -0.00054
CACAGGAC | -0.0463
AGGGTTGC | -0.0666
ACTTTAGG | -0.29
AAATCGAT | -0.0751
GTCGGGCA | -0.132
ACCTAGAG | -0.257
GGTTCTCA | -0.0509
CACTTCGG | 0.133
AGTGGCAG | -0.0107
ATTATATG | 0.0486
CTCAATGA | -0.0432
CCCCGTAG | -0.0696
CGTGCGAC | -0.0358
TAGGACCA | -0.13
CATCCAAA | -0.191
GTCCGGGA | 0.353
ATAATTCC | 0.206
ACCTACCC | 0.134
ATCTCACA | -0.147

Sequence | PBM E-score
CCAATATC | 0.154
CCTCACGA | -0.169
TGCGAAAA | 0.121
TAACATTA | -0.092
AGCAAAGC | -0.116
AGGTAATA | 0.125
GTGGCCCA | -0.0486
ATCCCTCG | 0.145
AGGCCACA | -0.216
CAATGATA | -0.0335
ATTCTTCG | -0.013
GAGGCCAC | -0.0817
CGTGATAA | 0.0764
AGTTCACC | 0.0988
GTTTGGTA | -0.0186
CCTCACAG | 0.0304
AAAGCCTT | -0.26
CTGCATAA | -0.03
CAAGACCC | -0.0844
AAGACTCG | -0.104
CAGCGCAG | -0.00798
CACGCTGA | -0.206
TCCCCAAA | -0.0478
CGATTGTC | 0.0469
CAAAAGCC | -0.0451

Sequence | PBM E-score
CTGATCGA | -0.302
AATACAGC | 0.0881
ACTTCATC | -0.055
GAAGGTAC | -0.196
AGGTCGTG | -0.228
CCGCGGCG | 0.477
CCAGTGAA | -0.166
GACGCCTA | -0.228
CAGTGCAC | -0.0999
ACCTGACC | -0.19
AAAAACAC | -0.131
GACCCCAC | 0.0197
ATACTTTG | 0.0195
GGTCGTGA | -0.217
GAGAACCC | -0.0375
TCAATGGA | -0.044
CTCTTATA | 0.14
AGATGCAG | -0.231
AATTATCT | 0.12
CTGGTTTC | 0.0941
ACCGAACT | 0.086
AGCACAAC | 0.151
AAGGCTGA | -0.164
AAATTGTG | -0.258
AAGAACAC | 0.0611

Sequence | PBM E-score
CATAGGTA | -0.128
ATTTGAGC | 0.00602
ACAGCCCA | -0.183
CGATGCAA | -0.0399
CCGACCGG | 0.339
ATGACATA | 0.108
ATTCGATG | -0.0673
ATCGCTCA | -0.0441
GTAGCGTA | -0.0161
AGTGTGCA | -0.038
CAAGACGA | -0.12
ACGTTGAT | -0.0248
CTGGCGGC | 0.188
CGGGAAAA | 0.221
CCTATAAA | -0.19
GCCGGCGA | 0.36
AACATTTA | 0.116
AGCCATGA | -0.0703
GGGAGCCC | -0.0936
CTGTTGTA | -0.0713
AAAGAACA | -0.143
TAACTTCA | -0.118
CAGATTAG | -0.229
GACAACAA | -0.115
AGAGATAT | -0.106

Sequence | PBM E-score
GAGTGCAC | -0.0758
AATTTTCC | 0.339
AGTGAAGA | -0.211
AGCGGAAG | 0.341
ACGCAGCC | 0.00505
AAATTAGT | 0.0923
AAAAGCCG | 0.142
CCGCGCAC | 0.174
AATCAAAA | 0.0383
CCCGCCGG | 0.373
CAATTAAC | 0.12
ACGTAGTC | -0.204
GAGGCAGA | -0.166
ATTTTGCA | -0.0654
GACCGGCC | 0.24
AGCCGTAT | 0.0899
CCAGTGCC | -0.1
AACGTACG | -0.162
ACTGCCTG | -0.0681
ACGTGAAT | -0.14
CGTCTACC | -0.0665
GCGGCTAC | 0.17
AAGTAGAT | 0.106
ACGATGCG | -0.19
CGCTCACG | 0.154

Sequence | PBM E-score
CCAGTACA | -0.16
AATTGGCA | -0.105
AGGGGTTC | -0.0384
ATCTTGAC | -0.184
GGTCCAGA | -0.0782
CGTGAATC | 0.0238
AGGTGGAC | -0.134
GTTCCGCA | 0.462
GAACGGTA | 0.0166
AATCTCAG | -0.0785
GCTTCACA | -0.0787
ACTTCTTG | -0.0216
ATTATGAA | 0.01
AGTCGCAT | -0.203
GCTCAAAC | 0.0815
GCGAGCAC | 0.0146
GATGTCGC | 0.0977
GATTGGGA | -0.0927
CTCATACC | 0.07
CGCTAGTA | 0.153
CTGGTGGC | -0.0314
CCGCCCCG | 0.435
ATAAAATA | 0.0204
AAACGTCC | -0.131
GTGTTCGA | 0.0381

Sequence | PBM E-score
CGTTTTCA | 0.149
GCCAAATA | -0.0741
GTGGTGCA | -0.0441
GCCGATCC | 0.231
CCATCTGC | 0.0199
AACCAGAC | -0.142
GGTCGATA | -0.0029
CGACTCCA | -0.0629
GAGATGAC | -0.116
CCCCATCG | 0.209
CGGACATA | 0.32
ATACGGCC | 0.0641
AAACGCAA | 0.0821
GTGCTCGA | 0.00353
GTGTGGTA | -0.21
CGCAATAC | 0.0777
GAGCATCC | 0.206
AGTGCAAC | -0.107
CTCGACAC | -0.0404
CTAGGGAA | -0.173
CTATTGGA | 0.0372
CACATGTA | -0.0565
